Source: PubChem BioAssay (NCI)
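Interpolation was linear, between the two tested concentrations surrounding the appropriate level; five concentrations were tested over 48 hours in 96-well plates. Here, GI50 denotes the concentration required for 50% inhibition of growth. At the TGI there is no net growth.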

Test system: NCI-H322M lung
Experiment: growth of human tumour cells (NCI), 48 h

Work on `Cc1cccc(/C=C/c2ccc(NC(=S)NCCCCN(C)C)cc2)c1` yielded a GI50 of 14.9 µM and a TGI of 28.4 µM.
`COc1ccc(CN2[C@H](C(=O)NCCCCCCC(=O)NO)Cc3c([nH]c4ccccc34)[C@H]2C2CC2)cc1` gave a GI50 of 2.13 µM and a TGI of 12.5 µM.
`CN(C)c1ccnc(NCCCSC(c2ccccc2)(c2ccccc2)c2ccccc2)c1` showed a GI50 of 14 µM and a TGI of 28.2 µM.
With `COc1cc2cc(C(=O)N3C[C@@H](CCl)c4c3cc(OC(=O)N3CCN(C(=O)CCC(=O)N5CCN(C)CC5)[C@@H]5CSSC[C@@H]53)c3ccccc43)[nH]c2c(OC)c1OC` the GI50 was 0.0251 µM and the TGI was 0.0973 µM.
